Several values for one entry are separate records, joined by “and”; a condition that tells them apart may be missing. Equal values may be shown once. The campaign covered roughly 48,000 compounds. About 1,200 (2.5%) were called active. Not shown: some 2% with an inconclusive outcome.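 The calls were made as follows: active = activation of at least 60% and not above a set upper limit (about 1 call in 100 departs from these limits); inconclusive = activation of 40% to 60%, or above that upper limit; inactive = activation under 40%.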 Some of the results follow.

This experiment addresses Probable G-protein coupled receptor 32 (Homo sapiens) (UniProt O75388). The experiment can be described thus: qHTS for Agonists of Human Resolvin D1 Receptor DRV1. Also: 0% is about no effect. The conditions noted are these: CHO-K1 GPR32 beta-arrestin PathHunter luminescence, 90 min; at 76.9 µM; hits give high values; zero percent set by DMSO-only wells. The essentials: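 Cells are plated overnight, treated with compounds in DMSO for 90 minutes at 37 °C, and developed with PathHunter detection reagent for 1 hour before luminescence is read; signal reflects beta-arrestin binding to GPR32 in engineered CHO-K1 cells.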
Chain of UniProt O75388 (O75388 whole entry, looked up): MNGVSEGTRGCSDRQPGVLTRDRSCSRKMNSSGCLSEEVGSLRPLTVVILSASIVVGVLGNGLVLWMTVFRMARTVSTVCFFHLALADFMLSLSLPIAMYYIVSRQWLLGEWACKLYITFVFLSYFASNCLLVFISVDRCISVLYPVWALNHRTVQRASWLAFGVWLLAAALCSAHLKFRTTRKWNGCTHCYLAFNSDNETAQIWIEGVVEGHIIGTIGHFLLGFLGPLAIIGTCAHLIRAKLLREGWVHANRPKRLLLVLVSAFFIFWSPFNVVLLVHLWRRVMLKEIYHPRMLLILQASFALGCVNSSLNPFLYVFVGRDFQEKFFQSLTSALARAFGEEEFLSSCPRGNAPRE
Take `Cn1c(=O)n(-c2ccc(Br)cc2F)c(=O)c2sc3ccccc3c21`: the activation is inactive: 2.46%. With `COc1ccc(Cn2c(=O)[nH]c3cc(C(=O)N4CCN(c5cccc(Cl)c5)CC4)ccc3c2=O)cc1`, the activation was inactive: 14.4%. As to `CC(=O)c1ccc(NC(=O)c2noc3c2CCc2ccccc2-3)cc1`, the activation was inactive: 8.2%. Take `CC1(C)O[C@@H]2C[C@H]3[C@@H]4CCC5=CC(=O)CC[C@]5(C)[C@@]4(F)[C@@H](O)C[C@]3(C)[C@]2(C(=O)CCl)O1`: the activation was inactive: -27.4%. In the case of `O=C(Nc1ccc(C(=O)OCc2cc(=O)n3c4c(sc3n2)CCCC4)cc1)c1ccccc1`, the activation is inactive: -7.86%. Consider `COc1ccc(C2C(C(N)=O)=C(C)Nc3nc(CCCO)nn32)c(OC)c1` (configuration not stated), for which the activation was inactive: -19.4%. On to `CCOc1ccc(NC(=O)Cn2cc(C(=O)c3ccc(CC)cc3)c(=O)c3cc(C)ccc32)cc1`, for which the activation was inactive: -5.09%. As to `COc1cccc(-c2nc(SCc3cc(=O)c4ccc(C)c(C)c4[nH]3)n[nH]2)c1`, the activation was inactive: 25.1%. Regarding `CCOc1cccc(C(=O)Nc2ccc(S(=O)(=O)N(Cc3ccccc3)c3ccccc3)cc2)c1`, the activation was inactive: 1.91%. As for `Cc1ccc(Cc2c(C)nc3nc(SCC(=O)NC(C)c4ccccc4)nn3c2C)cc1` (configuration not stated), the figure is inactive: -14.9%. As for `CCCN(C(=O)c1nn(-c2ccc(OC)cc2)c(=O)c2c1c1ccccc1n2C)c1ccc(CC)cc1`, the figure is inactive: -8.83%. Consider `Cc1ccc(Cc2nc3ccccc3nc2SCC(=O)NCCC(C)C)cc1`, for which the activation is inactive: -16.7%.

As to `COc1ccc(NC(=O)c2csc3c2CCCCC3)cc1`, the activation is inactive: -22.9%. With `C[C@]12C=CC(=O)C=C1CC[C@H]1[C@@H]3C[C@@H](O)[C@](O)(C(=O)CO)[C@@]3(C)C[C@H](O)[C@@]12F`, the activation was inactive: -4.43% and inactive: -8.17%. For the compound `CCOCCCn1c(SCC(=O)Nc2ccc(C(C)C)cc2)nc2c(sc3ccccc32)c1=O`, the activation was inactive: 0.321%.

Regarding `O=C(CSc1nc2c([nH]c3ccccc32)c(=O)n1-c1ccc(F)cc1)NCc1ccccc1`, the activation is inactive: 32.7%.

In the case of `COc1ccc(S(=O)(=O)c2nnn(-c3cc(Cl)c(OC)cc3OC)c2C)cc1`, the activation was inactive: -19.1%. As for `COc1ccc(C(=O)NCC(c2cccnc2)N2CCc3ccccc3C2)cc1OC` (configuration not stated), the figure is inactive: -13.4%; as for `COC(=O)c1cc2occc2n1Cc1nc(-c2ccccc2F)oc1C`, inactive: -5.4%; as for `Cn1c(=O)c2c(-c3ccccc3)n3c4ccccc4nc(-c4ccccc4)c3c2n(C)c1=O`, inactive: 0.609%. As to `CCn1c(=O)c2cc(C(=O)Nc3cc(F)ccc3F)sc2c2ccccc21`, the activation is inactive: -1.01%. `O=C(Nc1cccc(-c2nc3cc(Cl)ccc3o2)c1)c1cc([N+](=O)[O-])ccc1N1CCOCC1`: the activation is inactive: 5.07%.

Take `Cc1ccc(CN2CCC(CNc3ncnc4onc(-c5ccc(F)cc5)c34)CC2)cc1`: the activation is inactive: 31.5%. The result for `COc1ccc(CN2C(=O)c3oc4ccccc4c(=O)c3C2c2ccc(O)cc2)cc1` (configuration not stated) reads inactive: -2.66%. With `Cc1ccc(NC(=O)C2CCN(c3nc4ccccc4nc3C(F)(F)F)CC2)cc1F`, the activation is inactive: 5.49%. The result for `COc1ccc(C(=O)Nc2nnc(S(=O)(=O)N3CCCCCC3)s2)cc1OC` reads inactive: 8.04%; that for `CCC(C)n1c(=N)c(C(=O)NCc2ccccc2)cc2c(=O)n3cc(C)ccc3nc21` (configuration not stated), inactive: 2.24%.

`CCOC(=O)c1cc(-c2ccccc2)n(-c2cccc(C(=O)Nc3cccc(F)c3)c2)c1C`: the activation is inactive: -31.7%. For `CCN(CC)C(=O)/C(C#N)=C/c1cc(O)c(O)c([N+](=O)[O-])c1`, the activation was inactive: -90.1%. With `COc1ccc(C(=O)c2oc3ccccc3c2NC(=O)COc2ccccc2)cc1`, the activation is inactive: -12.6%.

For the compound `Cc1ccc(CNC(=O)CCc2c(C)nc3c(c(C)nn3-c3ccccc3)c2C)cc1`, the activation was inactive: 6.2%. For the compound `CCc1cccc(C)c1NC(=O)CC1Oc2ccc(C)cc2NC1=O` (configuration not stated), the activation was inactive: -7%. The result for `COc1ccc(CCNC(=O)c2sc3nc4n(c(=O)c3c2C)CCCC4)cc1OC` reads inactive: 2.74%; that for `CC(C)n1c(=N)c(C(=O)NCc2cccnc2)cc2c(=O)n3ccccc3nc21`, inactive: -6.67%.

Turning to `O=C(COc1ccc(Cl)cc1)OCc1cc(=O)n2nc(-c3cccs3)sc2n1`, the activation was inactive: -7.95%. Turning to `COc1ccc(Cl)cc1NS(=O)(=O)c1cc(Br)cc2c1N(C(=O)C1CC1)CC2`, the activation is inactive: -1.59%. Turning to `CCCS(=O)(=O)c1c(S(=O)(=O)CCC)c2cc(CC)ccn2c1C(=O)c1ccc(OC)cc1`, the activation was inactive: 23.4%. For `COc1ccc(CCNC(=O)c2cnc3ccc(C)cn3c2=O)cc1`, the activation is inactive: 5.2%. `CCOc1ccc(NC(=O)N2CCC(C(N)=O)(N3CCCCC3)CC2)cc1`: the activation is inactive: -12.5%. As to `COc1cccc(Cn2nnc(C(=O)Nc3cc(C)ccc3C)c2N)c1`, the activation was inactive: 7.94%. As to `CC(C)CS(=O)(=O)c1oc(-c2ccc(F)cc2)nc1S(=O)(=O)c1ccccc1`, the activation was inactive: -0.334%. `O=C(NC1CC(=O)N(c2cccc(F)c2)C1)c1ccc(S(=O)(=O)N2CCCC2)cc1` (configuration not stated): the activation was inactive: -6.09%. `O=C(Cn1c(=O)n(Cc2ccccc2)c(=O)c2sc3ccccc3c21)NCc1ccccc1Cl`: the activation was inactive: 0.665%. As to `O=C(CCc1nc(-c2cccs2)no1)Nc1ccccc1[N+](=O)[O-]`, the activation was inactive: -0.632%.

Regarding `Cc1ccn2c(=O)c(C(=O)NCCc3ccccc3)c(O)nc2c1`, the activation is inactive: -20.8%.

For `CCOc1ccccc1CNC(=O)Cn1c(-c2ccccc2)cc(C(C)=O)c1C`, the activation was inactive: -6.28%. Consider `Cc1ccc2nc(NC(=O)CSc3nccn3Cc3ccc(Cl)cc3)sc2c1`, for which the activation was inactive: -13.9%. In the case of `CCN(CC)c1cc(C)c2cc(NC(=O)c3cccc(F)c3)ccc2n1`, the activation was active: 92.4%.

As for `CSc1ccc(CCNC(=O)c2cnn(-c3ccccc3)c2-n2cccc2)cc1`, the activation is inactive: -2.99%. As for `O=C(Nc1cccc(Cl)c1)N1CCSc2ccccc21`, the figure is inactive: -29.9%; as for `Cc1cccc(NC(=O)c2cc(S(=O)(=O)N3CCc4ccccc43)ccc2F)c1C`, inactive: -19.2%; as for `COCCCNC(=O)CS(=O)Cc1nc(-c2cccc(C)c2)oc1C` (configuration not stated), inactive: -4.27%. As for `COc1ccc(OC)c(-c2cc(C(=O)NCCc3ccccc3)c3c(-c4ccc(C)cc4)[nH]nc3n2)c1`, the figure is inactive: 17.2%.

For `CCOC(=O)c1cnc2c(ccc3ccccc32)c1Nc1ccccc1OCC`, the activation was inactive: -8.53%. Take `COc1ccc(N2CCN(C(=O)C3CCCN(S(=O)(=O)c4ccc5c(c4)CCCN5C(C)=O)C3)CC2)cc1` (configuration not stated): the activation is inactive: 2.66%. As for `CCCn1cc(S(=O)(=O)c2ccccc2)c(=O)c2cc(F)c(N3CCCCC3)cc21`, the figure is inactive: -15.9%; as for `Cc1ccc(N2C(=O)CSC23C(=O)N(CC(=O)NCCc2ccccc2)c2ccccc23)cc1C` (configuration not stated), inactive: 0.475%; as for `CC(NC(=O)CCCC1=NS(=O)(=O)c2ccccc2N1)c1ccccc1` (configuration not stated), inactive: -6.03%. As to `CCOc1ccccc1NC(=O)c1c(NC(=O)COc2ccccc2)sc2c1CCCCC2`, the activation is inactive: -2.03%.

For the compound `C[C@@H](O)[C@H]1C(=O)N2C(C(=O)O)=C(S[C@@H]3CN[C@H](C(=O)N(C)C)C3)[C@H](C)[C@H]12`, the activation is inactive: -0.154% and inactive: 1.34%. As for `COc1ccc(NC(=O)CC2C(=O)N(c3ccc(F)cc3)C(=O)N2Cc2ccc3c(c2)OCO3)cc1` (configuration not stated), the activation is inactive: -18.8%.

Take `COc1ccc(-c2c(C)nn3c(N4CCN(c5ccccc5)CC4)cc(C)nc23)cc1OC`: the activation was inactive: -38%. Take `COc1ccc(/C=C(/C#N)c2nc(-c3ccc(-c4ccccc4)cc3)cs2)cc1OC`: the activation is inactive: 15%. With `CCCn1c(=N)c(C(=O)NC2CCCC2)cc2c(=O)n3cccc(C)c3nc21`, the activation was inactive: 5.51%. On to `Cc1noc(C)c1S(=O)(=O)Nc1ccc(C(=O)Nc2ccc(Br)cc2)cc1`, for which the activation is active: 95.4%. The result for `CCc1cccc(C)c1NC(=O)c1cc(S(=O)(=O)N2CCOCC2)cn1C` reads inactive: -5.9%; that for `CCOC(=O)c1ccccc1NC(=O)n1ncc2cc(Cl)ccc21`, inactive: 0.388%.

Turning to `COc1cc(NC(=O)CCn2cnc3ccccc3c2=O)cc(OC)c1`, the activation is inactive: -7.8%. Turning to `CCOc1cccc(C(=O)Nc2ccc3oc(-c4cccnc4)nc3c2)c1`, the activation was active: 107%. For `COc1ccc(OCCn2c(C)nc3cc(C)c(C)cc32)cc1`, the activation was inactive: -5.87%. As for `CCCCSCCCNC(=O)c1cn(CC)c2ccc(S(=O)(=O)N3CCCCCC3)cc2c1=O`, the figure is inactive: -9.53%. The result for `CCCCOc1ccc(CNC(=O)c2cc3n(n2)CCCN(Cc2ccc(C)cc2)C3=O)cc1` reads inactive: 3.28%. Regarding `CNC(=O)C1CCC(Cn2c(=O)c3sccc3n(CC(=O)NCc3cccc(OC)c3)c2=O)CC1` (configuration not stated), the activation was inactive: -12.8%. Turning to `Cc1cccc(-c2nc3scc(CCNC(=O)c4ccc(Br)o4)n3n2)c1`, the activation is inactive: -21.5%. Take `CCC(CC)C(=O)Nc1ccc(-c2cn3cccnc3n2)cc1`: the activation was inactive: 27.9%.

`COc1ccc(CCNC(=O)CCc2c(C)nc3cc(-c4ccccc4OC)nn3c2C)c(OC)c1`: the activation is inactive: -8.81%. As to `CCOC(=O)N1CCN(c2ncc3c(n2)CC(c2ccccc2O)CC3=O)CC1` (configuration not stated), the activation was active: 76.4%.

In the case of `COc1ccc(/C=C\c2onc(C)c2S(=O)(=O)N2CCC(C(=O)Nc3cccc(Cl)c3)CC2)cc1`, the activation was inactive: -10.4%. Turning to `COc1ccccc1NC(=O)CSc1nnc2c3ccccc3n(C(C)C)c2n1`, the activation was inactive: -44.3%. `CCCCCCCC/C=C\CCCCCCCC(=O)NCCO`: the activation was inactive: -8.24%. Turning to `COc1ccc(CNC(=O)CN2C(=O)COc3ccc(S(=O)(=O)NC4CCCC4)cc32)cc1`, the activation is inactive: -3.92%. Consider `COc1cccc(C(=O)N2CCc3c([nH]c4ccccc34)C2c2ccc(SC)cc2)c1` (configuration not stated), for which the activation was inactive: -31.7%.

The record behind these values is PubChem BioAssay AID1346428 (National Center for Advancing Translational Sciences (NCATS), 2018).
